The other results are listed elsewhere or left out. Interaction screen of human proteins with wild-type SARS-CoV-2 proteins by split-DHFR complementation in yeast, 1 µg/mL methotrexate. Value = fitness of the pair (three or more lineages) minus that of the viral protein without a human partner, on a scale set by negative (0) and fused positive (1) controls, mean of up to three cultures; higher = more likely to interact. Active = false discovery rate below 0.05 (one-sided t-test) in at least one culture. Nearly all pairs are not hits, and differences among them are mostly noise (correlation between cultures about 0.3); most hits were seen in one culture only. Human sequences are the Swiss-Prot entries looked up by gene name; the clone may be another isoform. NSP2 values were corrected by the authors for a growth advantage. Listed are human proteins with a hit and a random twelfth of the others.
What was measured:
Test in all cases: yeast fitness gain over the viral ORF with no human partner (scaled fitness); higher = more likely to interact
[1] = molecular target: SARS-CoV-2 NSP10
Description: (§1)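 Split mouse DHFR complementation in pooled diploid yeast: human ORFeome clones carry one fragment and viral ORFs the other; barcoded lineages compete in 1 µg/mL methotrexate and fitness is read by barcode sequencing in up to three cultures.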

[2] = molecular target: SARS-CoV-2 NSP12
Description: as §1

[3] = molecular target: SARS-CoV-2 NSP13
Description: as §1

[4] = molecular target: SARS-CoV-2 NSP2
Description: as §1

[5] = molecular target: SARS-CoV-2 NSP5
Description: as §1

[6] = molecular target: SARS-CoV-2 NSP7
Description: as §1

[7] = molecular target: SARS-CoV-2 NSP8
Description: as §1

[8] = molecular target: SARS-CoV-2 ORF10
Description: as §1

[9] = molecular target: SARS-CoV-2 ORF3B
Description: as §1

[10] = molecular target: SARS-CoV-2 ORF6
Description: as §1

[11] = molecular target: SARS-CoV-2 ORF7A
Description: as §1

[12] = molecular target: SARS-CoV-2 ORF8
Description: as §1

[13] = molecular target: SARS-CoV-2 ORF9B
Description: as §1

[14] = molecular target: SARS-CoV-2 ORF9Bwu (the 73-codon ORF)
Description: as §1

[15] = molecular target: SARS-CoV-2 S
Description: as §1

[16] = molecular target: SARS-CoV-2 NSP15
Description: as §1

[17] = molecular target: SARS-CoV-2 NSP16
Description: as §1

[18] = molecular target: SARS-CoV-2 NSP6
Description: as §1

[19] = molecular target: SARS-CoV-2 NSP9
Description: as §1

[20] = molecular target: SARS-CoV-2 ORF3A
Description: as §1

[21] = molecular target: SARS-CoV-2 ORF7B
Description: as §1

Measured: yeast fitness gain

B1: EBF1, Q9UH73 (protein)
chain: MFGIQESIQRSGSSMKEEPLGSGMNAVRTWMQGAGVLDANTAAQSGVGLARAHFEKQPPSNLRKSNFFHFVLALYDRQGQPVEIERTAFVGFVEKEKEANSEKTNNGIHYRLQLLYSNGIRTEQDFYVRLIDSMTKQAIVYEGQDKNPEMCRVLLTHEIMCSRCCDKKSCGNRNETPSDPVIIDRFFLKFFLKCNQNCLKNAGNPRDMRRFQVVVSTTVNVDGHVLAVSDNMFVHNNSKHGRRARRLDPSEGTPSYLEHATPCIKAISPSEGWTTGGATVIIIGDNFFDGLQVIFGTMLVWSELITPHAIRVQTPPRHIPGVVEVTLSYKSKQFCKGTPGRFIYTALNEPTIDYGFQRLQKVIPRHPGDPERLPKEVILKRAADLVEALYGMPHNNQEIILKRAADIAEALYSVPRNHNQLPALANTSVHAGMMGVNSFSGQLAVNVSEASQATNQGFTRNSSSVSPHGYVPSTTPQQTNYNSVTTSMNGYGSAAMSNLGGSPTFLNGSAANSPYAIVPSSPTMASSTSLPSNCSSSSGIFSFSPANMVSAVKQKSAFAPVVRPQTSPPPTCTSTNGNSLQAISGMIVPPM
inactive: [1] -0.061 | [2] -0.0813 | [3] -0.0532 | [4] -0.158 | [5] -0.0391 | [6] 0.161 | [7] -0.00444 | [8] -0.0328 | [9] -0.0464 | [10] 0.054 | [11] 0.0638 | [12] 0.0331 | [13] -0.0844 | [14] 0.122 | [15] 0.0164

B2: TMEM236, Q5W0B7 (protein)
chain: MASGRLIKFVVFELLEFAAFSIPTLVITEQFATAYQGTRARSDNTHYWLIISCSIAYVALVTLLIWVPVKVILHKKRYIYRKIKGWRPVLMMCVVLTTLPCLTFSIAVTEVQKSINGSADVLPDMLPDLPVSLVLLSLIMVDIIEKLRIYPLRGSQKSSENGHIHSTSLQHIKTVTEQVRQSPENAASPQATNSTQVSQPSGAMTRSQESVFMGPQEPSCDSGILRMMSRRDVRAELFLWSFLLWSDTIEMVRVAGHPNVYKSSWLYPVYIFSFISLLRITFTPQNPLLNSLSVLLQDLPFVFVRLGLIIALGTITPVLGLCKNILVTLSYIYFNYLTRIRIFSAFEMSPF
inactive: [1] -0.0173 | [2] -0.0286 | [3] 0.126 | [10] -0.0954 | [11] -0.118 | [12] 0.0533 | [15] 0.0774

B3: ACD, Q96AP0 (protein)
chain: MAGSGRLVLRPWIRELILGSETPSSPRAGQLLEVLQDAEAAVAGPSHAPDTSDVGATLLVSDGTHSVRCLVTREALDTSDWEEKEFGFRGTEGRLLLLQDCGVHVQVAEGGAPAEFYLQVDRFSLLPTEQPRLRVPGCNQDLDVQKKLYDCLEEHLSESTSSNAGLSLSQLLDEMREDQEHQGALVCLAESCLTLEGPCTAPPVTHWAASRCKATGEAVYTVPSSMLCISENDQLILSSLGPCQRTQGPELPPPDPALQDLSLTLIASPPSSPSSSGTPALPGHMSSEESGTSISLLPALSLAAPDPGQRSSSQPSPAICSAPATLTPRSPHASRTPSSPLQSCTPSLSPRSHVPSPHQALVTRPQKPSLEFKEFVGLPCKNRPPFPRTGATRGAQEPCSVWEPPKRHRDGSAFQYEYEPPCTSLCARVQAVRLPPQLMAWALHFLMDAQPGSEPTPM
inactive: [1] 0.0133 | [2] 0.0322 | [3] -0.0106 | [16] 0.0129 | [17] -0.0904 | [4] -0.141 | [5] -0.00107 | [18] 0.0125 | [6] -0.199 | [7] -0.262 | [19] 0.0909 | [8] 0.03 | [20] 0.0337 | [9] -0.0432 | [10] -0.0188 | [11] -0.0185 | [21] -0.0569 | [12] 0.0277 | [13] 0.0973 | [14] -0.0431 | [15] -0.162

B4: UGP2, Q16851 (protein)
chain: MSRFVQDLSKAMSQDGASQFQEVIRQELELSVKKELEKILTTASSHEFEHTKKDLDGFRKLFHRFLQEKGPSVDWGKIQRPPEDSIQPYEKIKARGLPDNISSVLNKLVVVKLNGGLGTSMGCKGPKSLIGVRNENTFLDLTVQQIEHLNKTYNTDVPLVLMNSFNTDEDTKKILQKYNHCRVKIYTFNQSRYPRINKESLLPVAKDVSYSGENTEAWYPPGHGDIYASFYNSGLLDTFIGEGKEYIFVSNIDNLGATVDLYILNHLMNPPNGKRCEFVMEVTNKTRADVKGGTLTQYEGKLRLVEIAQVPKAHVDEFKSVSKFKIFNTNNLWISLAAVKRLQEQNAIDMEIIVNAKTLDGGLNVIQLETAVGAAIKSFENSLGINVPRSRFLPVKTTSDLLLVMSNLYSLNAGSLTMSEKREFPTVPLVKLGSSFTKVQDYLRRFESIPDMLELDHLTVSGDVTFGKNVSLKGTVIIIANHGDRIDIPPGAVLENKIVSGNLRILDH
inactive: [1] -0.0618 | [3] -0.0531 | [8] 0.0451 | [10] -0.237 | [12] -0.24 | [13] 0.0593

Reference: the supplement of paper PMC11741623
